Among the data in the RNAGym collection of RNA variant scans (doi:10.7554/elife.90254) are self-cleavage values, retold here.

The source gives no read counts; variants with many changes may rest on few reads.

B1: LINE1-mini (parent)
chain: GGCAGAGCUCAACACAGCGUGGCAAAGUGGCUGUGGCUAGACUGCC

The data set covers variants of B1. Briefly: self-cleavage, relative activity (ratio to wild type); higher = more cleavage; in vitro, sequencing; the parent is a self-cleaving ribozyme.
Turning to GGCCGAGCUCAACACAGCGUGGCAAAGUGGCGCUCGAUAGACUGCC [A4C U32G G33C G35C C37A], the self-cleavage was 0.11.

On to GGCCGAGCUCAACACAGCGAUGCAAAGUGGCUGUGGCUUGAUUGAC [A4C U20A G21U A39U C42U C45A], for which the self-cleavage is 0.05. As for GGCGGAGCUCAACUCAGCUUGGCAAAGUGGCUGUGGCUAGAUUGCC [A4G A14U G19U C42U], the figure is 0; as for GGCGGCGCUCAACACAGCGUGGCAAAUUGUCUGUGGCUAGACUGCC [A4G A6C G27U G30U], 0.45. To GGCCGAGCUCAACACAGCGUGGCAAAGUGGCGGUGGCUAGACUGCU [A4C U32G C46U] belongs 0.03. As for GGCGGAGCUCGACACAGCGUGGCAAAGUUACUGUGGUUAGACUGCC [A4G A11G G29U G30A C37U], the figure is 0.03; as for GGCGGCGCUCAACACAGCGUGGCUAAGUGGCUGUGGCUAGACUGCC [A4G A6C A24U], 0.12; as for GGCCGAGCUCAACACAGCGUGGCAAAGUGGCUGGGGCUAGAGUGCC [A4C U34G C42G], 0.02.

As for GGCGGAGCUCAACUCAGCUUGGCAAAGUGGCUGUGGCUAGACUGCC [A4G A14U G19U], the self-cleavage came to 0.23.

As to GGCCGAGCUCAACACAGCGUGGCAAAGUGGCUGAGGCUAGGCUGCC [A4C U34A A41G], the self-cleavage stood at 0.04. As for GGCGGAGCUCAACGCAGCGUGGCAAAGUGGCUGUGGUUAGACUGCC [A4G A14G C37U], the figure is 0.06. To GGCGGCCCUCAACAGAGCGUGGCAAAGUGGCUGUGGCUAGACUGCC [A4G A6C G7C C15G] belongs 0.18; to GGCGGCGCUCAACACAGCUUGGCAAAGUGACUGUGGCUAGACUGCC [A4G A6C G19U G30A], 0.2. Take GGCGGGGUUCAACACAGCGUGGCAAAGUGGCUGUGGCUAGACUGAC [A4G A6G C8U C45A]: the self-cleavage was found to be 0.17. Take GGCGGAGCUCACCACAGCGUGGCAAAGUGGCUGUGGCUAGAGUCCA [A4G A12C C42G G44C C46A]: the self-cleavage worked out at 0.01. For GGCGGAGCUCAACCCAGCGUGGCAAAGUGGCAGUGGCUAGACUGCC [A4G A14C U32A], the self-cleavage came to 0.07. As for GGCGGCGCUCAACACAGCGUGGCAAAGUGGCUGUGGGUAGACUGCC [A4G A6C C37G], the figure is 0.34; as for GGCCGAGCUCAACACAGCGGGGCAAAGUGACUGUCGCUAGACUGCC [A4C U20G G30A G35C], 0.07. As for GGCGGAGCUCACCACAGCGUGGCGAAGUGGCUGUCGCUAGACUCCC [A4G A12C A24G G35C G44C], the figure is 0.01.

GGCGGAGCUCCACACAGCGUGGCAAAGUGGCAAUCGCUAGACUACC [A4G A11C U32A G33A G35C G44A]: the self-cleavage was found to be 0.01. To GGCGGAGCUCCACACAGCGUGGUAACGUGGCUGUGGCUAGACUGCC [A4G A11C C23U A26C] belongs 0; to GGCGGGGCUCAACAUAGAGUGGCAAAGUGGCUCUGGCUAGACUGCC [A4G A6G C15U C18A G33C], 0.01; to GGCGGAGCUCUACACAGCGUGGCAAAGUGGCUGUGGCGAGCCUGCC [A4G A11U U38G A41C], 0.01. As for GGCGGAGCUCAACUGAGCGUCGAAAAGUGGCUGUGGCUAGACUGCC [A4G A14U C15G G21C C23A], the figure is 0.14; as for GGCGGAGCUCAACCCAACGUGGCAAAGUGGCUGUGGCUAGACUGCC [A4G A14C G17A], 0.

As to GGCGGAGCUCAACGCAGCGUGGCAAAGUGGCUGUGGCUAGACUCCC [A4G A14G G44C], the self-cleavage was determined as 0.1. As for GGCGGAGCUCAGCACAGCGUGGCCAAGUGGCUGUGGCUAGAAUGUU [A4G A12G A24C C42A C45U C46U], the figure is 0.05; as for GGCGGCGCUCAACACAGCGUGGCAAAGUGGCUGUGGCUAGACUUCC [A4G A6C G44U], 0.38; as for GGCGGAGCUCAGCACAGCGUGGCAAGGUGGCUGUGGCUAGACUGCC [A4G A12G A26G], 0.02. As for GGCGGAGCUCAACACCCCGUGGCAAAGUGGCUGUGGCUAGACUGCC [A4G A16C G17C], the figure is 0.09; as for GGCGGAGCUCAUCACAGCGUGGCAAAGUGGCUGUCGCUAGACCGCC [A4G A12U G35C U43C], 0.13. With GGCGGGUCUCAACACAGCGUGGCAAAGUGGCUGUGGCUAGACUGCC [A4G A6G G7U], the self-cleavage came out at 0.01. As for GGCGGAGCUCGACACAGCGUGGCACAGUGGCUGUGACUAGACUGCC [A4G A11G A25C G36A], the figure is 0.02; as for GGCCGAGCUCAACACAGCGUGGCAAAGUGGCUGAGGCUAGACUGUC [A4C U34A C45U], 0.11.

As for GGCGGAGCUCACAACAGCGUGGCAAAGUGGCUCUGGCUAGACUGCC [A4G A12C C13A G33C], the self-cleavage worked out at 0.02. GGCGGAGCUCAUCACAGCGUGGCAAAGUGCCUGUGGCUAAACUGCC [A4G A12U G30C G40A]: the self-cleavage stood at 0.02. As to GGCGGAGCUCCACACAGCGUGCCAAAGUGACUGUGUCUAGACCUAC [A4G A11C G22C G30A G36U U43C G44U C45A], the self-cleavage came out at 0. As for GGCGGGGCUCAACACAGCGUGACAUACUAGCGGUGGCUAGACUGCC [A4G A6G G22A A25U G27C G29A U32G], the figure is 0.02; as for GGCGGAGCUCGACACAGCGUGGCCAAGUGGCUGUGGCUAGACUGCC [A4G A11G A24C], 0.02. Turning to GGCGGCGCUCAACAUAGCGUGGCAAAGUGGCUGUGGGUAGACUGCC [A4G A6C C15U C37G], the self-cleavage was found to be 0.07. To GGCGGAGCUCCACACAGCGUGGCAAAGUGGCUGUGCCUAGUCUGCC [A4G A11C G36C A41U] belongs 0.01; to GGCGGGGCUCAACUCAGCGUGGCAAAAUGGCUGUGGCUAGACUGCC [A4G A6G A14U G27A], 0.09; to GGCGGGGCUCAACACAGCGUGGCAAAGUGGCUAUGGCUAGACUUCC [A4G A6G G33A G44U], 0.03. As for GGCCGAGCUCAACACAGCGCGGCAAAGUGGCUGUGGCUAGACUGAC [A4C U20C C45A], the figure is 0.02; as for GGCGGAGCUCGACAAAGCGUGGCAAAGUGGCCGUGGCUAGACUGCC [A4G A11G C15A U32C], 0.01. As for GGCGGUUCUCUACACAGCGUUGCAAAGUGGCUGUGGCUAGACUGCC [A4G A6U G7U A11U G21U], the self-cleavage was 0.01. To GGCCGAGCUCAACACAGCGUGGCAAAGGGGCUGUGGCUAGUCUGCC [A4C U28G A41U] belongs 0.15; to GGCGGAGCUCAACUCAGCGUGGCAAAGUGGCUGUGGCUAGAGUGCC [A4G A14U C42G], 0.06; to GGCGGCGCUCAACACAGCGUGGCAAAGUGGCUGUUGCUAGACUGCC [A4G A6C G35U], 0.08.

With GGCGGCACUCAACACAGCGUGGAAAAGUGGCUGUGGCUAGAAGGCC [A4G A6C G7A C23A C42A U43G], the self-cleavage turned out to be 0.25. To GGCGGCAUUCAACACAGCUUGGCGAAGUGGGUGUGGCUAGACUGCC [A4G A6C G7A C8U G19U A24G C31G] belongs 0.04; to GGCGGAGCUCGACACAGCGUGCCAAAGUGGCUGCGGCUCGACUGCC [A4G A11G G22C U34C A39C], 0.04.

Regarding GGCCGAGCUCAACACAGCGUGGCAAAGUGGCUGCGGCUAGACUCGC [A4C U34C G44C C45G], the self-cleavage came out at 0.01. To GGCGGGGAUCAACACAGCUUGGCAAAGUGUCUGUGGCUAGACUGCC [A4G A6G C8A G19U G30U] belongs 0.06; to GGCGGAGCUCAACGCAUCGUUGCAAAGUGGCUGUUGCUAGACUGCC [A4G A14G G17U G21U G35U], 0.09.

GGCGGAGCUCAUCGCAGCGUGGCAAAGUGGCUGUGGCUAGACUGCC [A4G A12U A14G]: the self-cleavage stood at 0.06.
